Results taken from the supplement of paper PMC3334620.
In all, about 33,000 sequences were measured (“E-score (-0.5 to 0.5)”: median about -0.041, highest 2% from about 0.37 on). Some of the results follow.

Target: T1, Ecm22 (UniProt Q05958)
T1 sequence: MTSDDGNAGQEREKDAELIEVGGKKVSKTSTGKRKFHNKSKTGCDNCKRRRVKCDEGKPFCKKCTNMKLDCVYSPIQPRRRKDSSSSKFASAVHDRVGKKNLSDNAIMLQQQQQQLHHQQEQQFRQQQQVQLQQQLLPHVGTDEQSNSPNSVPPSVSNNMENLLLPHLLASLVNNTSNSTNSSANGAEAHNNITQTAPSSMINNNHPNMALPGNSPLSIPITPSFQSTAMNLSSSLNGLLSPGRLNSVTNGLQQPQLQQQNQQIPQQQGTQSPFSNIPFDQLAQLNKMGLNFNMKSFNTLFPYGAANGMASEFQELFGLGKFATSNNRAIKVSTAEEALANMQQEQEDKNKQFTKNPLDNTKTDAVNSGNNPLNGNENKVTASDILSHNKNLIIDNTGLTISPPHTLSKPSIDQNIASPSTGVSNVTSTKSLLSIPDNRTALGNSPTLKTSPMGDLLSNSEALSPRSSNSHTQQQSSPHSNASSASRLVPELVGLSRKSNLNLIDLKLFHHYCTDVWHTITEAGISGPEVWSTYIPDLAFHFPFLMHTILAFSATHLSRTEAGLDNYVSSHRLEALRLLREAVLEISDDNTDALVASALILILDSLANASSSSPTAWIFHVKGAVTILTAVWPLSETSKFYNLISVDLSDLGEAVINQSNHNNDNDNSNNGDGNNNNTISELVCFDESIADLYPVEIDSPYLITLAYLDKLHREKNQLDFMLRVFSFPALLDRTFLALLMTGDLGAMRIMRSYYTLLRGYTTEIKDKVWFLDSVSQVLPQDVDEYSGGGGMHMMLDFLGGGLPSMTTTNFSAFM
Assay: PBM E-score (8-mer binding enrichment) (E-score (-0.5 to 0.5)); higher = stronger / more preferred TF binding; most listed sequences are background and not binding sites
Settings: protein concentration: 200 nM; construct: GST-full length
Method in brief: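 Masliner-normalised scans of fluorescent anti-GST signal were the basis for scoring. That signal came from GST-tagged yeast transcription factors applied at about 100-200 nM to double-stranded universal all-10-mer Agilent arrays on fresh or once-stripped slides. Each ungapped eight-base word, pooled with its reverse complement, received an E-score from the Universal PBM Analysis Suite.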

| Sequence | PBM E-score |
| --- | --- |
| GTGGTCTA | -0.146 |
| GCCTTAGC | -0.299 |
| GTCAGGAC | -0.208 |
| AACTAGAA | 0.0154 |
| CCTAACCC | -0.132 |
| ACGATGCT | 0.283 |
| GCAGGCCC | -0.191 |
| CTTCAACC | -0.187 |
| CCCATTCC | -0.0966 |
| ATATGGAC | -0.0698 |
| AAACTCCC | -0.0659 |
| AAGATTAG | -0.0338 |
| GCCCTGAA | -0.0693 |
| TGAACTCA | 0.0345 |
| CCTAAAGC | -0.156 |
| AATCGCTA | 0.0741 |
| ACCCAACG | -0.0334 |
| GGGAGTAC | -0.0395 |
| ATCCATAC | 0.0926 |
| GGGTAGAA | -0.096 |
| ATGAAATA | 0.0173 |
| ATCTACTA | -0.0724 |
| AGTCTCAG | -0.321 |
| ATGTTAAC | -0.0227 |
| AAGCCATG | -0.173 |

| Sequence | PBM E-score |
| --- | --- |
| ACTGTTTA | 0.025 |
| AACCCACC | -0.078 |
| CACTCAGG | -0.106 |
| AACATAAG | 0.00326 |
| GACACCGA | -0.0898 |
| AGCAGCTA | -0.106 |
| CCAATCGA | -0.00328 |
| GATACTTA | -0.131 |
| CGAATCTA | 0.036 |
| GATCCCCA | -0.0245 |
| TGGCAGAA | 0.0114 |
| CCCTGTTC | -0.187 |
| CAACTGGG | -0.248 |
| ATCTCGCG | 0.23 |
| GAGCACAC | -0.254 |
| CTTCCAAG | -0.151 |
| GTTGCATA | 0.127 |
| AGGCATGG | -0.217 |
| ACCCATAA | 0.00567 |
| GCTGCCCC | -0.134 |
| CAGTTAAC | -0.00325 |
| GCCCCCTA | -0.423 |
| AGATCGAG | -0.0338 |
| CACGCTAA | -0.0563 |
| CGCCCGCA | 0.0243 |

| Sequence | PBM E-score |
| --- | --- |
| AGCATGCC | -0.286 |
| GGAAGTCA | -0.14 |
| AGTGCCTG | -0.0894 |
| AAACGAGA | 0.463 |
| GGGGTCAA | 0.0871 |
| AATGCTTA | -0.221 |
| GCCCGGTA | -0.0773 |
| GGTTTCAA | -0.0823 |
| GTCGATCA | -0.0187 |
| ACTTTCTC | -0.157 |
| ATTTTCCG | 0.178 |
| CGTAAATA | 0.377 |
| AATCTTGA | -0.329 |
| ATTCGTTA | 0.309 |
| CGGACTGC | -0.0684 |
| AATGCATG | 0.0368 |
| ATTGAGCG | 0.164 |
| CGCGTGGA | 0.0564 |
| GTTAGGGA | 0.0493 |
| CGTGGCAG | -0.0719 |
| ATGACGAC | -0.101 |
| GTCAACCA | -0.0873 |
| ACTAAACA | -0.273 |
| CGTTTATC | 0.42 |
| ATCATCCC | -0.131 |

| Sequence | PBM E-score |
| --- | --- |
| AACCAACA | 0.0859 |
| CGTCATTA | -0.109 |
| ATAGTGGG | -0.221 |
| ACCACGCG | 0.0976 |
| AGTGGTGC | 0.0925 |
| ACCCCCTG | -0.194 |
| AGGTGAGC | -0.0437 |
| GCCTGACC | -0.0841 |
| ACGTCTAG | -0.0254 |
| CCTGGCTC | 0.0716 |
| GCCTAGGC | -0.354 |
| AGTGACCG | -0.0274 |
| ACTCACGG | 0.034 |
| CAGTAAGA | 0.107 |
| ACCGTGGA | -0.081 |
| CCGACGAA | 0.105 |
| AGCCTGCC | 0.0185 |
| AACGAACA | 0.409 |
| GGCGCCGA | -0.0855 |
| CAACGTCA | -0.111 |
| TCCAAAAA | -0.191 |
| GAGACCGA | 0.0824 |
| GTAATGGA | -0.00921 |
| GACCATGC | 0.00018 |
| AAGACTTC | -0.136 |

| Sequence | PBM E-score |
| --- | --- |
| CCGATACG | 0.326 |
| ACTCCTGG | -0.334 |
| CCGTCAGG | -0.0998 |
| GAATTGGA | -0.0715 |
| CGTTGCCC | 0.22 |
| CCCCTAAG | -0.236 |
| CACGTAGC | -0.026 |
| CATGAACC | -0.06 |
| TTAATAAA | 0.169 |
| TGACTCCA | -0.349 |
| CTAGGAGA | -0.261 |
| CACGTTCG | -0.138 |
| AACCGCGT | 0.175 |
| ATACAAAC | 0.166 |
| GTACTTAA | 0.031 |
| ATAGGCCG | -0.0374 |
| CACAGGTC | -0.214 |
| ATCGACCG | 0.0199 |
| CGAGTTGC | 0.138 |
| GCCTCACA | -0.0448 |
| CGAGAAGA | 0.141 |
| CGAAATCA | 0.262 |
| ATCGCGAA | 0.284 |
| AAGGCGAT | 0.0228 |
| CTGGGCGA | -0.0927 |

| Sequence | PBM E-score |
| --- | --- |
| ACAAACGA | 0.445 |
| CCAGCCGG | -0.172 |
| TCAGTGGA | -0.35 |
| TGCACGAA | 0.109 |
| AGTGATAG | -0.126 |
| TCAAAAAA | -0.219 |
| AAGTAACT | -0.113 |
| ACTGTTAT | -0.149 |
| ATCTGCAT | -0.0143 |
| CTCGGCTC | 0.042 |
| CAGAAGTA | -0.283 |
| CATGGGGC | -0.289 |
| GCAGCCAA | -0.295 |
| ATGAGTGA | -0.14 |
| TCAACCCA | -0.077 |
| AGGTAAGC | -0.0248 |
| ATGTGAAG | -0.041 |
| CATCATTC | 0.0369 |
| TGTAGTAA | 0.0843 |
| AATTGAAA | -0.155 |
| GATAATCA | -0.053 |
| CACTGAGG | -0.0758 |
| GCTCTAAC | -0.103 |
| CCAGAATC | -0.00685 |
| ATTCTGAC | -0.00599 |

| Sequence | PBM E-score |
| --- | --- |
| CGTGTCGC | 0.265 |
| ACAATTAA | 0.0696 |
| CACCAACC | -0.107 |
| ACAGTCAG | -0.033 |
| CACACTGG | -0.202 |
| CAATCAGA | -0.023 |
| AGAAGCGA | 0.223 |
| AAGATGAG | -0.199 |
| GAGCTAGC | -0.0525 |
| GATAGTGA | 0.137 |
| CCAAGGGG | -0.115 |
| CTCGCTAC | 0.31 |
| AAACCATA | 0.0858 |
| GAGCCATA | -0.0602 |
| CCACGCGA | 0.18 |
| AAGAGCAC | -0.116 |
| AATAACGT | 0.155 |
| CGTTAACA | 0.233 |
| CGGGAGTC | -0.148 |
| ATAACAGG | -0.133 |
| AACACTTA | -0.0131 |
| CATGGATA | -0.0629 |
